# Out of some 110,000 compounds screened, about 230 (0.21%) showed an effect of 50% or more. This is one part of the list.
# Target: DPAP1 (Plasmodium falciparum, UniProt Q8IIJ9)
# Test: primary screen, percent inhibition; read by cleavage of a fluorogenic dipeptide substrate; higher = more effect of the substance
# Parameters: species or system P. falciparum D10 trophozoite lysates; single well
# 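Note: 30 min substrate incubation versus DMSO and 10 µM JCP410 controls.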
# Sequence of DPAP1 (Q8IIJ9 whole entry, looked up): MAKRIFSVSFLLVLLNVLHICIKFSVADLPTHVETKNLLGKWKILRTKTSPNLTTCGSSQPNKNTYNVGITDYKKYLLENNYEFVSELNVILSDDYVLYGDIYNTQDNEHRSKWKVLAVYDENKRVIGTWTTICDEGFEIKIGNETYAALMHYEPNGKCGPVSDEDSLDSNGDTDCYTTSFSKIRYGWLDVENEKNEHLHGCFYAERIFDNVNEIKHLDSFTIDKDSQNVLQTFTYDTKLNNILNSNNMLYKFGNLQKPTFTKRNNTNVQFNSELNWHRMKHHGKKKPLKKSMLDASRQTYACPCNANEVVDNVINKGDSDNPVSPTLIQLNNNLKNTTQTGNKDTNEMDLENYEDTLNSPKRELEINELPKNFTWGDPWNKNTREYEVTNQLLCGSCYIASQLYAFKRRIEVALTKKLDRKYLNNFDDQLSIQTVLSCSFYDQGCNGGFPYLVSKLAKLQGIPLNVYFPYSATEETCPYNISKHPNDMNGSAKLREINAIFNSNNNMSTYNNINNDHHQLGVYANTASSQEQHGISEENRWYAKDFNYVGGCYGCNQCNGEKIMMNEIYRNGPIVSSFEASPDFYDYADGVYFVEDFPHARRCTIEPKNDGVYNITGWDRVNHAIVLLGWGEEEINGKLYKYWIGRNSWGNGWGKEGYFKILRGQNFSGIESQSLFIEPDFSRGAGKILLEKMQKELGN
row,SMILES,% Inhibition @ 10 uM [%]
1,O=C(COc1ccccc1F)Nc1ccc(S(=O)(=O)Nc2nccs2)cc1,-3.25
2,CC(C)CC(NC(=O)COc1ccccc1)C(=O)O (stereo not shown),-3.21
3,O=C(Nc1cccc(O)c1)C(Cc1ccc([N+](=O)[O-])cc1)N1C(=O)c2ccccc2C1=O (stereo not shown),9.92
4,Cc1c2cnn(CC(=O)N3CC(C)CC(C)C3)c(=O)c2c(C)n1Cc1ccc(F)cc1 (stereo not shown),1.22
5,CCCCCNc1nc(S)nc2ccccc12,17.7
6,O=C(CSc1nc2ccccc2c2nc(-c3ccccc3)nn12)NCc1ccccc1,-4.19
7,N#Cc1ccc(N2C(=O)C3C4c5ccccc5C(c5ccccc54)C3C2=O)cc1 (stereo not shown),-6.67
8,Cn1cccc1/C=C1\CS/C(=C\c2cccn2C)C1=O,6.82
9,CCOC(=O)c1cnc2ccc(C(=O)OC)cc2c1NCCCO,-0.85
10,CC1CCN(C(=O)C2COc3ccccc3O2)CC1 (stereo not shown),1.27
11,C=CCNC(=O)c1cc2c(=O)n3cc(C)ccc3nc2n(Cc2cccnc2)c1=N,-1.47
12,CC1SC2(CN3CCC2CC3)NC1=O (stereo not shown),-5.51
13,COCCCn1c(=O)c2sccc2n2c(CCCC(=O)NC(C)CCc3ccccc3)nnc12 (stereo not shown),-3.88
14,CCn1c2ccccc2c2cc(C3C4=C(O)CCCC4=NC(C)=C3C(=O)OCCOC)ccc21 (stereo not shown),4.86
15,Cc1ccc(NC(=O)C(C)SCc2ccccc2)c(C)c1 (stereo not shown),-4.48
16,O=C(COc1ccc(Cl)cc1)NCc1ccccn1,-7.9
17,Cc1nc2c3cccnc3nn2c(C)c1CCC(=O)O,-0.0115
18,COc1ccc(Nc2cc(-c3ccccc3)nc(-c3ccc(Br)cc3)n2)cc1,5.73
19,O=C1CC(c2ccccc2Br)Sc2ccccc2N1 (stereo not shown),-1.78
20,CCC(=O)Nc1c(C(=O)N2CCc3ccccc3C2)cnn1-c1ccccc1Cl,-6.67
21,COc1ccc(CCNC(=O)C2CCCN(S(C)(=O)=O)C2)cc1OC (stereo not shown),35.7
22,Cc1ccc(-c2[nH]nc3c2C(c2ccc4c(c2)OCO4)C(C#N)=C(N)O3)cc1 (stereo not shown),4.09
23,CCOc1ccc(-c2nc3s/c(=C\C4=Cc5ccccc5OC4C)c(=O)n3n2)cc1 (stereo not shown),0.487
24,CCOc1cc(C2C(C(C)=O)=C(C)Nc3ncnn32)ccc1OCc1ccccc1 (stereo not shown),-2.13
25,Nc1ncnc2c1ncn2CCOc1ccccc1,-2.21
26,CCCc1noc2c1C(=O)CC(CC(C)SCC)C2 (stereo not shown),-0.902
27,COCCN1C(=O)/C(=C\c2ccc(C(=O)O)cc2)C(C(=O)OC)=C1C,-1.92
28,Cc1cccc(-c2noc(CN(C(=O)CCN3C(=O)c4ccccc4C3=O)C(C)C)n2)c1,-1.22
